Laboratory results published in PubChem BioAssay AID743279 (National Center for Advancing Translational Sciences (NCATS), 2014).
Screen size: about 360,000 compounds; about 17,000 (4.7%) were called active. The inconclusive results got no clear call from the source; some entries with a clear call stand among them for comparison. No stated cut-off is given here; in the data, active means activity change below about -50%; inconclusive means mostly about -30% to -49%; inactive means weaker than that.

Assay: qHTS for Inhibitors of Inflammasome Signaling: IL-1-beta AlphaLISA Primary Screen
Conditions: THP-1 LPS/ATP IL-1B secretion, 16 h; at 57.5 µM, stronger effect = lower value
Outline: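 Secreted IL-1B measured by AlphaLISA bead assay after 16 h compound exposure of THP-1 cells; compounds (final up to 57.5 uM) added 1 h before LPS (250 ng/mL) and ATP (1.25 mM) stimulation; lower signal means less secretion.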
On the % scale 0 is the no-effect control and ±100 the full control effect.

Activity change, active:
O=[N+]([O-])/C(C(Cl)=C(Cl)Cl)=C(/Sc1ccccc1)N1CCCCC1 -88.7%, OC[C@H]1O[C@H](c2nc(-c3nc(-c4cccs4)no3)cs2)C[C@@H]1O -79.6%, CC(=O)OC(C)C[N+](C)(C)C (stereo unspecified) -70.2%, COc1cc(CSc2nnnn2-c2ccc(C)cc2)cc(OC)c1OC -76.7%, c1ccc(COc2ccccc2CNC2CCCC2)cc1 -70.4%, Cc1cc(N2CCOCC2)nc2ccc(NC(=S)NCCC(C)C)cc12 -50.5%, N#CCCn1nc(-c2ccc(Br)cc2)cc1Nc1ccccc1NC(=O)C(F)(F)F -77.9%, Cc1nn(Cc2ccccc2)c(Cl)c1/C=C1\NC(=S)NC1=O -63.6%, Cc1nn(CC2CC2)c(=O)n1-c1ccccc1 -52.7%, COc1cccc(CNC(=O)CCC2CCCN(Cc3cc4ccccc4o3)C2)c1 (stereo unspecified) -60%, c1csc(COc2ccccc2CNC2CCCCC2)c1 -72.6%

Activity change, inactive:
COc1cc2[nH]c(=O)n(CCC(=O)N3CCN(Cc4ccccc4)CC3)c(=O)c2cc1OC 14.9%, CCc1c(-c2ccc(F)cc2)ncn1Cc1cccc(-c2ccccc2)c1 4.55%, Cc1ccc(NS(=O)(=O)c2ccc(C(=O)NCCCN3CCCC3=O)cc2)cc1 23.1%, C=CCSc1nnc(CC(OC)OC)n1-c1ccccc1 39.4%, Cc1nccn1-c1cc(C(C)(C)C)nc2c(-c3ccccc3)cnn12 0%, C[C@@]12C(=O)N(CCc3c[nH]c4ccccc34)CC(=O)N1[C@H]1c3ccccc3OC[C@@H]1[C@@H]2c1ccccc1 -20.8%, CC(C)Cc1nnc(NC(=O)CSc2nc(-c3ccccc3)cc(=O)[nH]2)s1 51.6%, O=S(=O)(Nc1cccnc1)c1ccc(Cl)c(C(F)(F)F)c1 5.48%, CCCNS(=O)(=O)c1cccc(C(=O)OCc2cc(=O)oc3cc(OC)ccc23)c1 30.9%, Cc1nnc(NC(=O)CSc2nnc3ncccn23)s1 -1.16%, Cc1ccccc1NC(=O)Nc1ccccc1C(N)=O -9.93%, COCOCCn1cc(CN2CCS(=O)(=O)N(Cc3ccc(-c4ccc(Cl)cc4)cc3)C(CC(C)C)C2=O)nn1 (stereo unspecified) 4.92%, COc1ccc(C(=O)Nc2cccc(C)c2)cc1S(=O)(=O)N1CCOCC1 -11.8%, CC(NC(=O)c1cccs1)C(c1cccs1)N1CCN(c2ccccc2)CC1 (stereo unspecified) -12.5%, NC(=O)c1cc2ccccc2o/c1=N\NC(=O)c1ccccc1O -26.2%, NC(=O)c1ccc(NC(=O)COC(=O)C2CC(=O)N(Cc3ccccc3)C2)cc1 (stereo unspecified) 32.9%, Cc1ccc2[nH]c(=O)c(CN(CCCN(C)C)C(=O)Nc3ccc(F)cc3)cc2c1 0%, CC(C)(C)OC(=O)[C@H](Cc1ccccc1)NC(=O)c1nc[nH]c1C(=O)NCC(=O)OCc1ccccc1 -4.56%, O=C(c1ccoc1)N1CCC2(CC1)Oc1ccc(F)cc1C(=O)C21CC(c2cccnc2)=NO1 (stereo unspecified) -17.4%, Nc1no[n+]([O-])c1-c1ccccc1 2.75%, S=C(NCc1ccccn1)Nc1ccccc1 7.17%, O=C1CN(C(=O)CN2CCN(S(=O)(=O)c3ccccc3)CC2)c2ccccc2N1 2.15%, CC(=O)Nc1sc(N/N=C\c2ccccc2Cl)nc1-c1cccs1 -2.87%, Cc1cccc(C(=O)NCCC(=O)NCc2ccccc2Cl)c1 -7.76%, CC(Cc1ccccn1)NC(=O)CCc1nnc(C2CCCCC2)o1 (stereo unspecified) -14.4%, CC(C)(C)NC(=O)C(c1ccccc1)N(C(=O)CNC(=O)c1cccs1)c1cccnc1 (stereo unspecified) -9.47%, COc1ccc(C(=O)Nc2ccc(NC(=O)c3cccc(F)c3)cn2)cc1 8.4%, CCOc1ccc(NS(=O)(=O)c2cc(OCC(N)=O)c(C)cc2Cl)cc1 17.3%

Activity change, inconclusive:
O=C1c2cc(Cl)ccc2OC2(CCNCC2)C12CC(c1ccc(Cl)cc1)=NO2 (stereo unspecified) -35.8%, Cc1cc(C)cc(NC(=O)c2cc(Cl)sc2Cl)c1 -31.8%, CC(COc1ccccc1)N1CCC(CO)(Cc2ccccc2)CC1 (stereo unspecified) -39.8%, O=C(CSc1nnnn1-c1ccc2c(c1)CCC2)NCc1cccs1 -37.2%, CCc1ccc(-c2nc(CN3CCC(C(=O)N4CCN(c5ccccc5)CC4)CC3)c(C)o2)cc1 -33.3%, COc1ccc2c(c1)[C@H]1[C@H](CO2)[C@H](c2ccccc2)[C@]2(C)C(=O)Nc3ccccc3C(=O)N12 -33.9%, CN(Cc1ccccc1)C(=O)c1cccc(N2C(=O)NC3CC2(C)Oc2ccccc23)c1 (stereo unspecified) -39.6%, N#Cc1cc2c(nc1SCC(=O)N1CCCCC1)CCCCC2 -44.9%, COc1ccc(CC(N)c2csc(NC(=O)c3ccccc3)n2)cc1 (stereo unspecified) -32.7%, O=C(NCc1ccncc1)c1nc(-c2ccc(C(F)(F)F)cc2)no1 -46.9%, O=C(CN1CCN(CC(=O)Nc2cccc(F)c2)CC1)NCC1(N2CCOCC2)CCCCC1 -46.9%, CNC(=O)NC1CCCCc2sccc21 (stereo unspecified) -48.9%, CCCCCCCCNCCS(=O)(=O)NCc1ccccc1OC -46.7%, CCCCCN(C(=O)CCC(=O)OCCOc1ccc(OC)cc1)c1c(N)n(CCCC)c(=O)[nH]c1=O -46.9%, Cn1c(CCN2CCCCCC2)nc2cc(NC(=O)Nc3ccccc3)ccc21 -42.3%, c1ccc(-n2cccc2CNC2CCCCC2)cc1 -36.9%, N#C/C(=C/c1ccc(OCc2ccc(C(=O)O)cc2)cc1)C(=O)Nc1ccccc1 -30.1%, Cc1ccc2cccc(OCc3nnc(SCC(=O)O)n3C)c2n1 -40.6%, Cn1cccc1C(=O)OCC(=O)N1CC(=O)Nc2ccccc21 -30.1%, NC(=O)Cn1cnc2nc3n(c2c1=O)CCC3 -36.8%, CCCOc1cc(C)c(S(=O)(=O)NC2CC(C)(C)NC(C)(C)C2)cc1C -35.2%, CNS(=O)(=O)c1cc(NC(=O)c2cccc3cccnc23)ccc1C -32.1%, CCCCCCN(C(=O)CCCN1C(=O)NC(c2ccc(-c3ccccc3)cc2)C(C(=O)OCc2ccccc2)=C1C)C(C)C(=O)NCCCC (stereo unspecified) -46.5%, CCOC(=O)C1NN=C(C(=O)c2ccc(C)cc2)C1c1ccc(C)cc1 (stereo unspecified) -32.1%, CC1C(=O)N(Cc2cn(Cc3ccco3)nn2)CCS(=O)(=O)N1Cc1ccc(-c2cccnc2)cc1 (stereo unspecified) -37.4%, Cc1ccc(NC(=O)C(=O)NCCN2CCN(C(=O)C(c3ccccc3)c3ccccc3)CC2)cc1 -45.6%, COc1ccc(/C=N/NC(=O)c2cc(C)n(-c3ccccc3)c2C)cc1OC -40.2%, Cc1ccc(N=C2C(=S)N(c3ccc(C)cc3)C(=N)N2/N=C/c2ccc(Cl)cc2)cc1 -31.5%, COc1ccc(NC(=O)c2cc(CC(C)C)on2)cc1OC -38.5%, CS(=O)(=O)c1ccc(-c2cnc3c(NC=O)cc(-c4ccsc4)cn23)cc1 -44.6%, Cc1ccc(C)c(N2CCN(C(=O)c3nn(C)c4c3CS(=O)(=O)c3ccccc3-4)CC2)c1 -49.7%, CCn1c(C)nc2cc(C(=O)N/N=C/c3ccccc3C)ccc21 -44.1%, Cc1ccc(NC(=O)c2ccc(-n3cccn3)c([N+](=O)[O-])c2)cc1C -34.3%, O=C(Nc1cccc(-c2ccc(F)cc2)c1)C1CCCN(Cc2cccnc2)C1 (stereo unspecified) -44.5%, COc1ccc(-c2cc(C(=O)NCCCN3CCOCC3)c3cc(C(C)C)ccc3n2)cc1 -41.5%, COC(=O)c1cc(Oc2ccc(S(=O)(=O)N3CCOCC3)cc2[N+](=O)[O-])cc(C(=O)OC)c1 -41.6%, Cc1noc(/C=C/c2ccco2)c1S(=O)(=O)N1CCC(C(=O)N2CCc3ccccc3C2)CC1 -38.3%, COc1cc(C(=O)Nc2ccc(S(=O)(=O)Nc3cnc4ccccc4n3)cc2)cc(OC)c1OC -42.5%, CCOc1ccc2[nH]c3c(N4CCC5(CC4)OCCO5)ncnc3c2c1 -45.7%, COc1cc2ncnc(NCc3ccccc3)c2cc1OC -33.9%, CCC(c1nnnn1Cc1ccco1)N(Cc1cc2cc(OC)ccc2[nH]c1=O)C1CCCCC1 (stereo unspecified) -48.8%, CCOCCn1c2ccccc2c2nc3ccccc3nc21 -33%, O=C(CCN1C(=O)C2CCCCC2C1=O)Nc1nc(-c2ccc(F)c(F)c2)cs1 (stereo unspecified) -38.3%, COc1cc(/C=C/C(=O)OCC(=O)N2CCCc3ccccc32)ccc1OCC#N -43.1%, Nc1ccc(S(=O)(=O)c2ccc(N3CCOCC3)c(N)c2)cc1 -44.8%, COc1ccccc1C(=O)N1C(CC(=O)Nc2cc(Cl)ccc2C)C(=O)NC2CCCCC21 (stereo unspecified) -34%, COc1ccc(-c2csc(NC(=O)C3=COCCO3)n2)cc1OC -33.6%
